Laboratory results taken from PubChem BioAssay AID2546 (National Center for Advancing Translational Sciences (NCATS), 2010).
“And” between values parts separate entries of the source, which are not always exact repeats. Equal values may be shown once. Hit rate of the full screen: of about 310,000 compounds, about 11,000 (3.5%) were called active. The inconclusive results got no clear call from the source; some entries with a clear call stand among them for comparison. Calls come from the whole dose curve; as a rule, active = well fitted inhibition curve with a large enough effect; inconclusive = small, poorly fitted or top-dose-only effect, or effect the other way; inactive = flat fitted curve, though single readings scatter. A potency beside an inconclusive call is a rough fit, not a confirmed value.
Potency is the fitted concentration of half-maximal effect; tags give direction and shape of the fitted curve.

Assay: VP16 counterscreen qHTS for inhibitors of ROR gamma transcriptional activity;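 note: Gal4-VP16 expression switched on by copper sulfate through the metallothionein promoter; nearly all actives have a fitted effect of over 50% in size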
Settings: Drosophila S2 Gal4-VP16 UAS-luciferase, luminescence, 20 h; series mostly up to 53.6 µM
With `CC(=O)N1c2ccc(S(=O)(=O)N3CCC(C(=O)Nc4cccc(F)c4)CC3)cc2CC1C` (centres undefined) the Potency was inconclusive: 31.6 µM [inhibitor, single point].
In the case of `COc1ccc(OC)c(C2C3=C(N=C4SCC(=O)N42)c2ccccc2CC3)c1` (centres undefined), the Potency is reported as inconclusive: 28.2 µM [inhibitor, single point].
With `CCCCN(C)C(=O)Cn1cnc2sc(C)cc2c1=O` the Potency was “inactive”.
In the case of `O=C(NC(=S)Nc1ccccc1N1CCCCC1)c1cccs1`, the Potency is reported as inconclusive: 1.26 µM [inhibitor, full curve, poor fit].
With `CC(CC(=O)Nc1ccc(Cl)c([N+](=O)[O-])c1)c1ccccc1` (centres undefined) the Potency was “inactive”.
In the case of `O=c1c2ccccc2c2ccccc2c(=O)n1-c1ccccc1`, the Potency is reported as inconclusive: 2.24 µM [activator, single point].
With `O=C(CC1c2ccccc2Oc2ccccc21)N1CCN(c2ccccn2)CC1` the Potency was inconclusive: 35.5 µM [inhibitor, single point].
With `N/C(=N\OC(=O)COc1ccc(Cl)cc1Cl)c1ccccn1` the Potency was inconclusive: 10 µM [inhibitor, single point].
For `O=C1CCOc2cc(OCc3ccccc3)ccc21`, the Potency was inconclusive: 25.1 µM [inhibitor, single point].
In the case of `OCCN(Cc1ccccc1)Cc1ccccc1Cl`, the Potency is reported as inconclusive: 35.5 µM [inhibitor, single point].
In the case of `CC1CCN(C(=O)CSc2nnc(-c3cccs3)o2)CC1`, the Potency is reported as inconclusive: 22.4 µM [activator, single point].
In the case of `Oc1ccccc1CNc1ccc(OC(F)(F)F)cc1`, the Potency is reported as inconclusive: 35.5 µM [inhibitor, single point].
For `COc1ccc(C(=O)Nc2cc(C)nn2-c2nc3ccccc3[nH]2)c(OC)c1`, the Potency was active: 3.98 µM.
For `CCOc1cc(/C=N/NC(=O)CCc2n[nH]c(=O)[nH]c2=O)ccc1O`, the Potency was “inactive”.
In the case of `O=C(Nc1ccc(Cl)cn1)C1COc2ccccc2O1` (centres undefined), the Potency is reported as inconclusive: 2.24 µM [inhibitor, partial curve].
In the case of `CCOc1ccc(NC(=O)c2c(NC(=O)CN3CCCC3)sc3c2CCC3)cc1`, the Potency is reported as active: 4.47 µM.
With `Cc1cc(C)c2nc(NNC(=O)c3cc(=O)c4ccccc4o3)sc2c1` the Potency was inconclusive: 12.6 µM [inhibitor, single point].
In the case of `Cn1c(C(C(=O)NCC2CCCO2)N(CCc2ccccc2)C(=O)Cn2nnc3ccccc32)nc2ccccc21` (centres undefined), the Potency is reported as “inactive”.
For `COc1ccc(CNC(=O)C2=C(C)C(=O)OC23CCC(C)CC3)cc1` (centres undefined), the Potency was “inactive”.
With `Cc1nn(CC(=O)Nc2cccc(S(N)(=O)=O)c2)c(C)c1[N+](=O)[O-]` the Potency was inconclusive: 1.26 µM [inhibitor, partial curve, poor fit].
With `Cc1cc(C2CCCCC2)n(O)c(=O)c1` the Potency was active: 1.41 µM and active: 2.24 µM.
In the case of `O=C(NC1CC1)c1cccc(Oc2ccccc2)c1`, the Potency is reported as inconclusive: 15.8 µM [activator, single point].
In the case of `CCOc1ccc(N(C(C)C(=O)N/N=C(\C)c2cccc(NC(=O)c3ccccc3)c2)S(C)(=O)=O)cc1` (centres undefined), the Potency is reported as “inactive”.
With `O=C(Nc1ccc(Cl)cc1)N1CCC(c2nc(-c3ccc(F)cc3)no2)CC1` the Potency was inconclusive: 35.5 µM [inhibitor, single point].
With `Oc1ccccc1N=Cc1sc2ccccc2c1Cl` the Potency was inconclusive: 5.62 µM [activator, single point].
With `Cc1ccc(C(=O)NCCCc2ccccc2)c(Cl)c1` the Potency was “inactive”.
For `CCOc1ccc(OCCN2C(=O)c3ccccc3C2=O)cc1`, the Potency was inconclusive: 35.5 µM [inhibitor, single point].
In the case of `S=C(NCc1ccncc1)Nc1ccc(Cl)cc1`, the Potency is reported as “inactive”.
In the case of `Cc1ccc(CN2C(=O)N/C(=C\c3cccn3-c3cccc(C(=O)O)c3)C2=O)cc1`, the Potency is reported as “inactive”.
With `OCCNCC(O)Cn1c2ccccc2c2ccccc21` (centres undefined) the Potency was “inactive”.
In the case of `O=C(Cn1c(=S)[nH]c2ccccc21)c1ccccc1`, the Potency is reported as inconclusive: 35.5 µM [inhibitor, single point].
With `Cc1csc(/C(=N\O)c2csc(C)n2)n1` the Potency was active: 4.47 µM.
For `O=C(Nc1nc2n(n1)C(c1ccccc1)CC(c1ccc(Cl)cc1)N2)c1ccco1` (centres undefined), the Potency was active: 5.01 µM.
For `COCc1ccc(C(=O)N(C)CC2CCCN(CCc3ccc(OC)cc3)C2)o1` (centres undefined), the Potency was inconclusive: 4.47 µM [inhibitor, single point].
With `Brc1ccc(CSc2nnc(-c3ccco3)o2)cc1` the Potency was inconclusive: 35.5 µM [inhibitor, single point].
In the case of `C=C1C(=O)[C@]23[C@H](O)[C@H]1CC[C@H]2[C@@]12COC3(O)[C@H](O)[C@@H]1C(C)(C)CC[C@@H]2O`, the Potency is reported as active: 3.55 µM.
For `CC1=C(C(=O)OC(C)C)C(c2cccc([N+](=O)[O-])c2)C(C(=O)OC2CN(C(c3ccccc3)c3ccccc3)C2)=C(N)N1` (centres undefined), the Potency was inconclusive: 35.5 µM [inhibitor, single point].
In the case of `CC(=O)Nc1ccc2nc(-c3cccn3C)[nH]c2c1`, the Potency is reported as inconclusive: 6.31 µM [activator, full curve, poor fit].
In the case of `CCn1c(NC(=S)Nc2ccccc2)nc2ccccc21`, the Potency is reported as active: 2.82 µM.
With `Cc1nc(SCC(=O)N2CCc3ccccc3C2)c2c(C)c(C)sc2n1` the Potency was inconclusive: 7.94 µM [activator, partial curve, poor fit].
In the case of `CCOc1ccccc1NC(=S)NNS(=O)(=O)c1c(C)cc(C)cc1C`, the Potency is reported as active: 14.1 µM.
For `Oc1ccc(/C=N/Nc2ccc(C(F)(F)F)cn2)cc1`, the Potency was inconclusive: 10 µM [inhibitor, partial curve].
With `CS(=O)(=O)N1CCC2(CC1)CN(C(=O)Nc1cccc(F)c1)C2` the Potency was “inactive”.
With `C=CCNc1nnc(SC2CC(=O)N(c3ccc(OCCC)cc3)C2=O)s1` (centres undefined) the Potency was active: 17.8 µM.
For `Cc1cccc(-c2noc(-c3ccc(Cl)cc3[N+](=O)[O-])n2)c1`, the Potency was active: 10 µM.
For `N=c1c2c(-c3ccccc3)c(-c3ccccc3)n(Cc3ccco3)c2ncn1CCCn1ccnc1`, the Potency was inconclusive: 35.5 µM [inhibitor, single point].
With `O=C(CSc1nnc(-c2ccc(F)cc2)o1)N1CCCCC1` the Potency was inconclusive: 2.82 µM [inhibitor, partial curve].
In the case of `O=C(Cc1ccccc1)Nc1ccc(SC(F)F)cc1`, the Potency is reported as inconclusive: 0.1 µM [activator, full curve, poor fit].
In the case of `O=C(Nc1nc2ccccc2s1)c1ccc(F)cc1`, the Potency is reported as inconclusive: 28.2 µM [inhibitor, single point].
In the case of `COc1ccc2nc(C)c3cc(C)oc3c2c1`, the Potency is reported as “inactive”.
For `COc1ccc(OC)c(-n2c(=S)[nH]c3cc(C(=O)N(C)Cc4ccccc4)ccc3c2=O)c1`, the Potency was inconclusive: 35.5 µM [inhibitor, single point].
In the case of `CCOc1cc(C(=S)N2CCCC2)ccc1OCc1ccccc1`, the Potency is reported as inconclusive: 35.5 µM [inhibitor, single point].
With `O=C(NC(NC(=S)Nc1c(Cl)cc(Cl)cc1Cl)C(Cl)(Cl)Cl)OCc1ccccc1` (centres undefined) the Potency was active: 5.62 µM.
In the case of `Cc1nnc(NC(=O)c2ccc3c(c2)OCO3)s1`, the Potency is reported as “inactive”.
In the case of `CC(NC(=S)Nc1ccc(OC(F)F)cc1)c1ccc(F)cc1` (centres undefined), the Potency is reported as active: 12.6 µM.
With `O=C(N1CCCCCC1)n1c(Cc2ccccc2)nc2ccccc21` the Potency was inconclusive: 35.5 µM [inhibitor, single point].
In the case of `Cc1occc1-c1nnc(SCC(=O)N2CCCc3ccccc32)n1Cc1ccco1`, the Potency is reported as inconclusive: 35.5 µM [activator, single point].
For `Oc1ccc(Cl)cc1C1=NNC(c2ccc(Cl)cc2)C1` (centres undefined), the Potency was active: 15.8 µM.
With `COc1ccc(/C=C/c2cc(-c3ccc(C)cc3)o[n+]2C)cc1` the Potency was active: 12.6 µM.
In the case of `CCOC(=O)c1ccc(-n2c(C)nc3c(cnn3-c3ccc(Cl)cc3)c2=O)cc1`, the Potency is reported as inconclusive: 3.16 µM [inhibitor, single point].
In the case of `O=C(Cc1ccccc1)N/N=C/c1ccc(Cl)cc1Cl`, the Potency is reported as inconclusive: 35.5 µM [inhibitor, single point].
With `S=C1SCN(Cc2ccccc2)CN1Cc1ccccc1` the Potency was inconclusive: 6.31 µM [inhibitor, single point] and inconclusive: 35.5 µM [inhibitor, single point].
In the case of `Cc1cc([N+](=O)[O-])ccc1NC(=O)CN1C2CCC1CC(NC(=O)NC13CC4CC(CC(C4)C1)C3)C2` (centres undefined), the Potency is reported as inconclusive: 11.2 µM [inhibitor, partial curve].
In the case of `CC(=O)Nc1ccc(S(=O)(=O)N2CCC(NC(=O)c3ccco3)CC2)cc1`, the Potency is reported as “inactive”.
With `CCOC(=O)c1sc2ncnc(NCC(c3cccs3)N(C)C)c2c1C` (centres undefined) the Potency was inconclusive: 25.1 µM [inhibitor, single point].
With `COc1ccc(C2=C/C(=C\c3cccc(OC(C)=O)c3)C(=O)O2)cc1` the Potency was inconclusive: 12.6 µM [inhibitor, single point].
In the case of `CN(C(=O)CN1C(=O)/C(=C/c2ccccc2Cl)SC1=S)C1CCS(=O)(=O)C1` (centres undefined), the Potency is reported as inconclusive: 22.4 µM [inhibitor, single point].
For `CCOC(=O)/C(C#N)=C\c1ccc(O)c(OC)c1`, the Potency was “inactive”.
In the case of `COCCCNc1oc(-c2cccs2)nc1S(=O)(=O)c1ccc(C)cc1`, the Potency is reported as inconclusive: 22.4 µM [inhibitor, single point].
For `Cc1ccc2[nH]c(=O)c(CN(Cc3cccnc3)Cc3nnnn3CC3CCCO3)cc2c1` (centres undefined), the Potency was “inactive”.
With `CCCCC(=O)NC(c1ccccc1Cl)c1c(O)ccc2ccccc12` (centres undefined) the Potency was “inactive”.
In the case of `Cn1c(SCC(=O)N2CCCc3ccccc32)nnc1-c1ccccc1`, the Potency is reported as “inactive”.
For `O=C(CC(=O)c1cc(Cl)ccc1O)c1ccccc1`, the Potency was active: 11.2 µM.
With `CCCCCc1ccc(OCCOCCn2c[n+](C)c3ccccc32)c(CCCCC)c1` the Potency was active: 15.8 µM.
